# Experimental data published in PubChem BioAssay AID1347073 (National Center for Advancing Translational Sciences (NCATS), 2019).
# Out of some 45,000 compounds screened, about 200 (0.44%) were called active. Roughly 7% stayed inconclusive and do not appear here. Calls come from the whole dose curve; as a rule, active = well fitted activation curve with a large enough effect; inconclusive = small, poorly fitted or top-dose-only effect; inactive = no such curve, though single readings can be large or run the other way. The list shows a part of the results.
# Assay: qHTS of TDP-43 Inhibitors: NCGC Sytravon Library Screen; note: 0% is about no effect; nearly all actives have a fitted effect of over 55% in size
# Details: yeast TDP-43 toxicity rescue, BacTiter-Glo growth, 24 h; series mostly up to 46.1 µM; growth rescue (activation): at the top concentration
# How it was run: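 TDP-43-expressing yeast, pregrown in raffinose, seeded at OD600 0.02 in galactose medium with compound for 24 hr at 30 deg C. Growth read by BacTiter-Glo luminescence, so rescue of toxicity appears as activation.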
row,SMILES,growth rescue (activation)
1,O=C(COc1ccc2ccccc2c1)Nc1cccc(C(=O)Nc2ccccc2C(=O)O)c1,inactive: -24.7%
2,CN(Cc1ccccc1)C(=O)C1CCCN(Cc2ccc(Cl)cc2)C1 (stereo not drawn),inactive: 1.13%
3,C=CCN(CC=C)C(=O)c1c(OC)cccc1OC,inactive: -13.7%
4,CN(Cc1ccno1)C(=O)CC1C(=O)NCCN1CC(c1ccccc1)c1ccccc1 (stereo not drawn),inactive: 3.48%
5,CC(=O)Nc1cccc(NS(=O)(=O)c2ccccc2[N+](=O)[O-])c1,inactive: 1.06%
6,O=C(COC(=O)Cc1ccc(Cl)cc1)Nc1c(F)cccc1F,inactive: 1.59%
7,CCOC(=O)NC(=O)/C(N=Nc1cccc(C(F)(F)F)c1)=C(\C)O,inactive: 0.148%
8,COc1ccccc1OCCn1c(COc2cc(C)ccc2C)nc2ccccc21,inactive: 24.6%
9,COc1cccc(CNC(=O)CNS(=O)(=O)c2ccc3nc(C)sc3c2)c1,inactive: 6.03%
10,N#Cc1cc2c([nH]c1=S)CCCC2,inactive: 0.808%
11,Clc1ccccc1Cc1noc(CN2CCN3CCCC3C2)n1 (stereo not drawn),inactive: 6.48%
12,CCc1nc2c(OCc3ccc(F)c(F)c3)cccn2c1N(C)C(=O)C(C)C,inactive: 8.8%
13,CCCNC(=O)C1(C)CCN(Cc2ccc(OC)c3ccccc23)C1 (stereo not drawn),inactive: 10.1%
14,COC(=O)c1ccc(C2/C(=C(\O)c3cccc(OC)c3)C(=O)C(=O)N2CCCN2CCOCC2)cc1 (stereo not drawn),inactive: 0.231%
15,O=C(CSc1nc2ccccc2c(=O)n1CCCO)N1CCc2ccccc21,inactive: 1.52%
16,COc1cc(C(=O)NNC(=S)NC(=O)c2ccc(F)cc2)cc(OC)c1OC,inactive: 0.415%
17,O=C(NCCc1ccccc1C(F)(F)F)C1CCC(=O)N(C2CC2)C1 (stereo not drawn),inactive: 0.0508%
18,CC(OC(=O)c1ccc([N+](=O)[O-])cc1)C(=O)NCC1CCCCC1 (stereo not drawn),inactive: 4.59%
19,Cc1ccc(-c2cc(C(=O)N/N=C/c3ccc(F)cc3)n[nH]2)o1,inactive: 28.8%
20,Cc1ccccc1Nc1nc(N)nc(COC(=O)c2ccco2)n1,inactive: 4.96%
21,CN(C)c1ccnc2sc3c(SCc4ccc(Cl)cc4)ncnc3c12,inactive: -1.47%
22,CCOC(=O)N1CCN(C(=O)c2ccc(Cl)nc2)CC1,inactive: 2.99%
23,O=C(Nc1ccc(Cl)cc1)c1csc(COCCO)n1,inactive: 8.97%

row,SMILES,growth rescue (activation)
1,Nc1cccc(CN2CCCC2)c1,inactive: 1.84%
2,O=C(O)/C=C/C(=O)NCCC(c1ccccc1)c1ccccc1,inactive: -1.62%
3,COc1cc(CCC(=O)OCC(=O)Nc2ccc3c(c2)OCO3)cc(OC)c1OC,inactive: -4.96%
4,O=C(CNC(=O)c1ccc2c(c1)OCO2)N/N=C/c1cc(Br)ccc1O,inactive: 6.17%
5,CN(C)c1ccc(C(=O)Nc2ccc(-c3nc4ccccc4o3)cc2)cc1,inactive: 1.29%
6,CC(=O)Nc1cc(-c2cccc(C(=O)NCCN(C)C)c2)cn2c(-c3ccc(C(C)=O)cc3)cnc12,inactive: 13.6%
7,CCOC(=O)c1ccc(-c2ccc(/C=C(\C#N)C(=O)NCc3cccs3)o2)cc1,inactive: -24.3%
8,CC(C)OP(=O)(c1ccc(N(C)C)cc1)C(O)c1ccc(Br)cc1 (stereo not drawn),inactive: 12.6%
9,CCCC(=O)n1nc(-c2cccnc2)nc1NCc1ccccc1,inactive: -0.959%
10,COc1ccc(N2CCN(C(=O)Nc3ccccc3Cl)CC2)cc1,inactive: 23.5%
11,Nc1ncc(CCN2CCOCC2)c(-c2ccc(F)cc2)n1,inactive: -14.4%
12,CC1(C(=O)N(CC(=O)NC2CCCC2)Cc2ccccc2)CC(=O)N=C2C=CC=CN21 (stereo not drawn),inactive: -7.81%
13,Cc1ccc(C(=O)N2N=C(CC(C)C)CC2(O)C(F)(F)F)o1 (stereo not drawn),inactive: 8.09%
14,O=C(CNC(=O)c1cncc(Br)c1)Nc1ccc(F)c(F)c1F,inactive: 2.73%
15,O=C(Nc1nc(-c2ccc3c(c2)Cc2ccccc2-3)cs1)c1ccccc1,inactive: 21.7%
16,Cc1cccc(OCC(=O)N(Cc2ccc(N(C)C)cc2)Cc2ccco2)c1C,inactive: 21.4%
17,CC(=O)N1N=C(c2ccco2)CC1c1cc2ccc(C)cc2nc1Cl (stereo not drawn),inactive: 13.3%
18,O=C(c1cc(-c2cccc(O)c2)on1)N1CCCCCC1,inactive: 35%
19,CCCN(CC1CC1)C(=O)COC(=O)c1ccc(C)cc1O,inactive: 3.74%
20,CC(=O)c1cc(-c2ccccc2)n(CCC(=O)NC2CCCCC2)c1C,inactive: 9.46%
21,Cc1cccc(C(=O)NCCCNC(=O)c2ccco2)c1,inactive: 7.33%
22,CC(CN1CCCCCC1)C(=O)NN (stereo not drawn),inactive: -1.17%
23,COc1ccc(-n2nc(C(=O)NCC(=O)N3CCN(c4ccccn4)CC3)c3ccccc3c2=O)c(OC)c1,inactive: 25.9%

row,SMILES,growth rescue (activation)
1,CC12CN3CC(C)(CN(C1)C3c1cc3ccccc3[nH]1)C2=O (stereo not drawn),inactive: -18.7%
2,CC1(C)CC(NS(=O)(=O)c2ccc(C(C)(C)C)cc2)CC(C)(C)N1,inactive: 9.24%
3,Cc1ccc(Cl)cc1NC(=O)C(NS(=O)(=O)c1cccs1)c1ccccc1 (stereo not drawn),inactive: 20.9%
4,O=C(N/N=C/c1cccnc1)c1cccc(Cl)c1,inactive: -6.34%
5,COc1cc(N)c(Cl)cc1C(=O)OCC(=O)NCC1CCCO1 (stereo not drawn),inactive: -8.9%
6,Cc1cc(S(=O)(=O)NC2CCCC2)ccc1-n1cnnn1,inactive: 1.93%
7,COc1ccc(-c2nnn(CC(=O)NCc3ccc4c(c3)OCO4)n2)cc1OC,inactive: 9.47%
8,COc1ccc(NC(=O)CN(C)CC(=O)N2CCCCCC2)cc1,inactive: 0.0326%
9,CN(C)C1N(C(=O)c2ccccc2)N=C2c3ccccc3S(=O)(=O)N21 (stereo not drawn),inactive: 14.8%
10,CN1CCN(c2ncc(CN3C(=O)c4ccccc4C3=O)s2)CC1,inactive: -4.03%
11,O=C(c1ccco1)N1N=C(c2ccc(Cl)cc2)CC1(O)C(F)(F)F (stereo not drawn),inactive: 7.92%
12,Cc1ccc(C(=O)NCCCNC(=O)c2ccco2)cn1,inactive: -2.56%
13,O=C(COc1ccc(Cl)cc1Cl)NN=C1CCCCC1,inactive: 12.9%
14,O=C1CN(C(=O)CNC(=O)c2ccc(Cl)cc2Cl)CCN1,inactive: 6.05%
15,Cc1ccccc1NC(=O)Nc1nc(CN(C)C)cs1,inactive: 4.49%
16,COc1cccc(C=O)c1OC(=O)N1CCOCC1,inactive: -6.63%
17,CCNC(=O)C1(C)CCCN1Cc1c(F)cccc1F (stereo not drawn),inactive: 8.95%
18,COC(=O)c1ccccc1NC(=O)N1CCN(c2ccccc2F)CC1,inactive: 12.1%
19,COc1c(Cl)cc(Cl)cc1C(=O)Nc1ccc(NC(C)=O)cc1,inactive: 37.5%
20,O=S(=O)(c1ccc(Cl)c2ccccc12)N1CCCC1,inactive: 14.4%
21,COc1ccc(-c2nnn(CC(=O)N(CC(=O)NC3CCCC3)c3ccccc3F)n2)cc1OC,inactive: -1.27%
22,CC(NC(=O)c1ccco1)C(=O)OCC(=O)c1ccc(Cl)s1 (stereo not drawn),inactive: -1.28%
23,COc1ccc(C)cc1NC(=S)N1CCN(S(C)(=O)=O)CC1,inactive: 13.7%

row,SMILES,growth rescue (activation)
1,CCC(C)N1CCN(S(=O)(=O)Cc2ccccc2)CC1 (stereo not drawn),inactive: -10%
2,COc1ccc(-c2[nH]ncc2CNC(C)CCn2cccn2)c(F)c1 (stereo not drawn),inactive: 4.8%
3,Clc1ccc(N2CCN(/N=C/c3ccncc3)CC2)cc1,inactive: -2.25%
4,CCCn1nnnc1NCc1ccccc1F,inactive: -8.71%
5,O=C(CN1CC[C@@]2(O)CCCC[C@H]2[C@@H]1c1ccc(F)cc1)NCc1ccco1,inactive: -14.2%
6,COc1cccc(C(=O)NCCNC(=O)c2ccco2)c1,inactive: -8.22%
7,O=[N+]([O-])c1ccn(-c2nc(-c3ccccc3)cc(C(F)(F)F)n2)n1,inactive: 22.5%
8,Cc1cccc(C(=O)Oc2ccccc2-c2nnco2)c1,inactive: 4.69%
9,COc1ccccc1N1C(=O)C2C3C=CC(C3)C2(C)C1=O (stereo not drawn),inactive: -4.37%
10,COCCN1C[C@@H](CO)O[C@@H](n2cnc3c(NCCCO)ncnc32)C1,inactive: -2.94%
11,O=C(O)C1CCCCC1C(=O)NCCCN1CCOCC1 (stereo not drawn),inactive: 12.8%
12,COCCCNC(=O)c1cccc2c(-c3ccnn3C)coc12,inactive: 20.1%
13,Cn1cc(Br)c(C(=O)NNC(=O)c2ccccc2)n1,inactive: -15.8%
14,Cc1cc(/C=C2/C(=O)NN(c3ccccc3)C2=O)c(C)n1-c1ccc(O)cc1,inactive: -4.96%
15,Cc1ccccc1NC(=O)/C(C#N)=C/c1ccc(-c2ccc(Cl)c(C(=O)O)c2)o1,inactive: -7.3%
16,COc1ccccc1C(=O)N=C1NC(=O)CC2C(=O)NCCN12 (stereo not drawn),inactive: -1.14%
17,CC1(C(=O)NS(=O)(=O)c2ccc(F)cc2F)CCN1C(=O)CC1CCCCC1 (stereo not drawn),inactive: 10.5%
18,COc1ccc2nc(CC(C)(C)CC(=O)O)c[n+]([O-])c2c1,inactive: -14.3%
19,Cc1ccc(C)c(NCc2n[nH]c(=S)n2-c2ccccc2)c1,inactive: -4.51%
20,CCOc1ccc2nc(N3CCC(C(=O)NCCCN4CCOCC4)CC3)sc2c1,inactive: 23.7%
21,NS(=O)(=O)c1cccc(NC(=O)COC(=O)Cc2ccc(Cl)cc2)c1,inactive: -0.0613%
22,COc1ccccc1/C=C/CN1CCN(Cc2ccc(C)o2)C(CCO)C1 (stereo not drawn),inactive: 8.38%
23,O=C(Cc1ccccc1Cl)Nc1cccc(S(=O)(=O)N2CCOCC2)c1,inactive: 17.3%

row,SMILES,growth rescue (activation)
1,N#C/C(=C\C1=C(N2CCOCC2)C(=C/c2cccc([N+](=O)[O-])c2)/CC1)C(=O)Nc1ccccc1F,inactive: 5.39%
2,CCOc1ccc(N2CC(C(=O)N3CCCCCC3)CC2=O)cc1 (stereo not drawn),inactive: 12.4%
3,CSc1ccccc1C(=O)C1CCCN(C(=O)CCN2CCCO2)C1 (stereo not drawn),inactive: 3.23%
4,Cc1csc(SCC(=O)NC2CCS(=O)(=O)C2)n1 (stereo not drawn),inactive: -30%
5,CCOc1ccc(S(=O)(=O)NCc2cccnc2)c2ccccc12,inactive: 7.01%
6,O=C(O)c1cc(N/N=C/c2c[nH]c3ccccc23)ccc1Cl,inactive: 0.654%
7,CC(C)[C@H](NS(=O)(=O)c1ccccc1)C(=O)Nc1nccs1,inactive: -12.1%
8,COc1cc(/C=N/n2cnc3scc(-c4cccs4)c3c2=O)cc(OC)c1OC,inactive: 11.4%
9,COc1ccc(N=Cc2c(O)n(-c3ccc(OC)cc3)c(=O)c3ccccc23)cc1,inactive: -8.43%
10,CCC1CCCCN1C(=O)c1ccc([N+](=O)[O-])o1 (stereo not drawn),inactive: 21.1%
11,CC(=O)NC(=S)Nc1ccccc1C(=O)Nc1ccccc1,inactive: 0.203%
12,Fc1ccc(Oc2cnc3ccccc3n2)cc1,inactive: 10%
13,CCCCOC(=O)c1ccc(S(N)(=O)=O)o1,inactive: 5%
14,Cc1ccnc2nc(C(=O)OCC(=O)N3CCc4ccccc43)nn12,inactive: -1.35%
15,CCCn1cnc2cc(NCc3cccs3)ccc21,inactive: -5.47%
16,Cn1cccc1/C=N/NC(=O)c1cc2ccccc2cc1O,inactive: 7.82%
17,COc1ccc(CC(=O)O/N=C(\N)c2ccccn2)cc1,inactive: 11.3%
18,CCCOc1ccc(CN2C(=O)C(=O)c3cccc(C)c32)cc1,inactive: -92.8%
19,Cc1ccc(-n2nc(C)c3c(C)c(CCC(=O)NCc4ccc(Cl)cc4)c(C)nc32)cc1,inactive: -4.28%
20,CSc1nnc(C)c(/C=C/Nc2ccc(F)cc2F)n1,inactive: 4.72%
21,COc1cccc(NC(=O)N2CCC(NC(=O)c3ccco3)CC2)c1,inactive: 3.97%
